Consider 25 compounds from the antibiotic and cytotoxicity screens of Wong et al. (2023).

Some of the results follow.

The test system of one assay is HSkMC. Nature of the assay: cytotoxicity call (relative viability < 0.9). The note with it: 10 µM.
In another assay the test system is HepG2. Description: cytotoxicity call (relative viability < 0.9). Particulars: 10 µM.
For the next assay, the system named is S. aureus RN4220. Description: growth inhibition call (relative growth <= 0.2). The note with it: 50 µM.

Regarding `C[C@H]1CN([C@@H](C)CO)C(=O)c2cccc(NS(=O)(=O)c3cccs3)c2O[C@H]1CN(C)S(=O)(=O)c1ccc(F)cc1`, the cytotoxicity call in the assay on HSkMC and with HepG2 was “inactive” in each case. Moreover, the growth inhibition call with S. aureus RN4220 was “inactive”.
As for `C[C@H]1CN([C@@H](C)CO)C(=O)Cc2cc(NS(=O)(=O)c3ccccc3)ccc2O[C@H]1CN(C)Cc1ccc(-c2ccccc2)cc1`, the cytotoxicity call in the assay on HSkMC and with HepG2 was “active” throughout. For the same compound, in the assay on S. aureus RN4220, the growth inhibition call is “inactive”.
`C[C@@H]1CN([C@@H](C)CO)C(=O)c2cc(C#Cc3ccc(F)cc3)cnc2O[C@H]1CN(C)Cc1ccccn1`: the cytotoxicity call in the assay on HSkMC and in the assay on HepG2 was “inactive” throughout. For the same compound, in the assay on S. aureus RN4220, the growth inhibition call was “inactive”.
As to `C[C@H]1CCCCO[C@H](CN(C)C(=O)c2ccccc2)[C@@H](C)CN([C@@H](C)CO)C(=O)c2cc(NS(=O)(=O)c3cccs3)ccc2O1`, the cytotoxicity call in the assay on HSkMC and in the assay on HepG2 was “inactive” in each case. Moreover, the growth inhibition call in the assay on S. aureus RN4220 was “inactive”.
For the compound `C[C@H](CO)N1C[C@H](C)[C@H](CN(C)S(C)(=O)=O)Oc2ccc(NC(=O)CCC(F)(F)F)cc2C1=O`, the cytotoxicity call in the assay with HSkMC and with HepG2 was “inactive” each time. For the same compound, the growth inhibition call in the assay on S. aureus RN4220 was “inactive”.
Take `C[C@H](CO)N1C[C@H](C)[C@@H](CN(C)S(=O)(=O)c2ccc(F)cc2)Oc2ccc(NC(=O)Cc3ccccc3)cc2CC1=O`: the cytotoxicity call in the assay on HSkMC and with HepG2 was “inactive” each time. In addition, the growth inhibition call in the assay with S. aureus RN4220 was “inactive”.
With `C[C@@H]1CN([C@@H](C)CO)C(=O)c2cc(NS(=O)(=O)c3ccccc3)ccc2O[C@@H](C)CCCCO[C@@H]1CN(C)S(=O)(=O)c1cn(C)cn1`, the cytotoxicity call in the assay with HSkMC and with HepG2 was “inactive” each time. In addition, in the assay on S. aureus RN4220, the growth inhibition call was “inactive”.
With `C[C@H](CO)N1C[C@H](C)[C@H](CN(C)S(C)(=O)=O)Oc2c(NS(=O)(=O)c3cccs3)cccc2C1=O`, the cytotoxicity call in the assay on HSkMC and in the assay on HepG2 was “inactive” each time. Besides, the growth inhibition call in the assay with S. aureus RN4220 was “inactive”.
Consider `C[C@@H]1CN([C@@H](C)CO)C(=O)c2cc(NS(=O)(=O)c3ccccc3)ccc2O[C@H]1CN(C)CC1CC1`, for which the cytotoxicity call in the assay on HSkMC and with HepG2 was “inactive” each time. In the assay with S. aureus RN4220, the growth inhibition call is “inactive”.
Regarding `Oc1ccccc1/N=C/c1ccncc1`, the cytotoxicity call with HSkMC and in the assay on HepG2 was “inactive” each time. Further, the growth inhibition call with S. aureus RN4220 was “inactive”.
As to `Cc1noc(C)c1NC(=O)Nc1ccc2c(c1)C(=O)N([C@@H](C)CO)C[C@@H](C)[C@@H](CN(C)C(=O)NC1CCCCC1)OCCCC[C@H](C)O2`, the cytotoxicity call with HSkMC and with HepG2 was “inactive” in each case. In the assay with S. aureus RN4220, the growth inhibition call was “inactive”.
Regarding `Cc1ccccc1S(=O)(=O)N1C[C@@H](O)COC[C@H]2O[C@H](CC(=O)N3CCOCC3)CC[C@@H]21`, the cytotoxicity call in the assay on HSkMC and in the assay on HepG2 was “inactive” throughout. For the same compound, in the assay with S. aureus RN4220, the growth inhibition call is “inactive”.
Consider `C[C@@H]1CN([C@@H](C)CO)C(=O)c2cccc(NC(=O)CCCCCC(=O)Nc3ccccc3N)c2O[C@H]1CN(C)Cc1ccc(Cl)c(Cl)c1`, for which the cytotoxicity call in the assay on HSkMC and with HepG2 was “inactive” each time. The growth inhibition call in the assay with S. aureus RN4220 was “inactive”.
In the case of `COCCNC(=O)C[C@H]1CC[C@H]2[C@@H](COC[C@H](O)CN2S(=O)(=O)c2ccccc2C)O1`, the cytotoxicity call with HSkMC and with HepG2 was “inactive” in each case. For the same compound, the growth inhibition call with S. aureus RN4220 was “inactive”.
Regarding `Cc1nccn1C[C@H](C)C(=O)O`, the cytotoxicity call with HSkMC and in the assay on HepG2 was “inactive” each time. Further, the growth inhibition call with S. aureus RN4220 was “inactive”.
Regarding `Cc1noc(C)c1NC(=O)Nc1ccc2c(c1)C(=O)N([C@H](C)CO)C[C@H](C)[C@H](CN(C)C(=O)NC1CCCCC1)OCCCC[C@H](C)O2`, the cytotoxicity call with HSkMC and with HepG2 was “inactive” in each case. For the same compound, the growth inhibition call in the assay with S. aureus RN4220 is “inactive”.
For the compound `CCOC(=O)CC1=NNC(=N)SC1`, the cytotoxicity call with HSkMC and in the assay with HepG2 was “inactive” throughout. In the assay with S. aureus RN4220, the growth inhibition call was “inactive”.
Consider `CO[C@H](CN(C)S(=O)(=O)c1cn(C)cn1)[C@H](C)CN(C(=O)Nc1ccc(C(F)(F)F)cc1)[C@H](C)CO`, for which the cytotoxicity call with HSkMC and in the assay with HepG2 was “inactive” in each case. Besides, the growth inhibition call with S. aureus RN4220 is “active”.
With `O=C(C[C@H]1CC[C@H](NC(=O)CN2CCOCC2)[C@H](CO)O1)NCc1cccc(F)c1`, the cytotoxicity call in the assay on HSkMC and in the assay with HepG2 was “inactive” throughout. Further, the growth inhibition call in the assay with S. aureus RN4220 was “inactive”.
Turning to `C[C@@H]1CCCCO[C@H](CN(C)CC2CCCCC2)[C@@H](C)CN([C@H](C)CO)C(=O)c2cc(NC(=O)c3ccncc3)ccc2O1`, the cytotoxicity call in the assay with HSkMC and in the assay with HepG2 was “inactive” throughout. For the same compound, the growth inhibition call in the assay with S. aureus RN4220 was “inactive”.
Consider `CO[C@@H]1CN(C)C(=O)c2cc(NS(=O)(=O)c3ccccc3C)ccc2OC[C@@H](C)N(S(C)(=O)=O)C[C@H]1C`, for which the cytotoxicity call in the assay on HSkMC and with HepG2 was “inactive” each time. The growth inhibition call in the assay with S. aureus RN4220 was “inactive”.
Turning to `C[C@@H]1CCCCO[C@H](CN(C)C(=O)C2CCCCC2)[C@@H](C)CN([C@@H](C)CO)C(=O)c2cc(NC(=O)C3CCCCC3)ccc2O1`, the cytotoxicity call in the assay on HSkMC (human skeletal muscle cells) and with HepG2 was “inactive” each time. For the same compound, the growth inhibition call in the assay on S. aureus RN4220 is “inactive”.
As for `Cc1ccc(S(=O)(=O)N2C[C@@H](O)COC[C@H]3O[C@H](CC(=O)N[C@H]4CCN(Cc5ccccc5)C4)CC[C@@H]32)cc1`, the cytotoxicity call in the assay with HSkMC and in the assay with HepG2 was “inactive” each time. The growth inhibition call in the assay on S. aureus RN4220 is “inactive”.
Regarding `C[C@H](CO)N1C[C@H](C)[C@H](CN(C)C(=O)Nc2cccc3ccccc23)OCCCC[C@H](C)Oc2ccc(NC(=O)Nc3ccc4c(c3)OCO4)cc2C1=O`, the cytotoxicity call in the assay with HSkMC and in the assay with HepG2 was “inactive” each time. Further, the growth inhibition call with S. aureus RN4220 was “inactive”.
Consider `C[C@@H]1CN([C@H](C)CO)C(=O)c2cc(NC(=O)Nc3ccc(C(F)(F)F)cc3)ccc2O[C@@H]1CN(C)S(=O)(=O)c1ccc(F)cc1`, for which the cytotoxicity call with HSkMC and in the assay on HepG2 was “active” in each case. Besides, the growth inhibition call in the assay with S. aureus RN4220 is “inactive”.
